Assay results from the supplement of paper PMC9174493.
Some of the results follow. Single values of this set are uncertain. Values with irradiation are relative to irradiated vehicle.

Key:
[1] = tested on: A549-Dual; assay: NF-kB reporter (SEAP) activity, viability-corrected, relative to vehicle (fold change vs vehicle); higher = more activation of STING-IRF / NF-kB immune response reporter; settings: 10 µM
[2] = tested on: A549-Dual; assay: ISRE reporter (Lucia luciferase) activity, viability-corrected, relative to vehicle (fold change vs vehicle); higher = more activation of STING-IRF / NF-kB immune response reporter; settings: 10 µM
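For NF-kB reporter (SEAP) activity, viability-corrected, relative to vehicle in this document: viability correction based on the alamar blue assay, with concentrations leaving 10% survival or less dropped.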

SMILES | NF-kB reporter ([1]; irradiation: 8 Gy/4 fr) | NF-kB reporter ([1]; irradiation: none) | ISRE reporter ([2]; irradiation: 8 Gy/4 fr) | ISRE reporter ([2]; irradiation: none)
CC/C=C(\C(=O)NC1C(=O)N2C(C(=O)OCOC(=O)C(C)(C)C)=C(COC(N)=O)CSC12)c1csc(N)n1.Cl.O (stereo not given) [Cefcapene Pivoxil Hydrochloride] | 0.872 | 1 | 0.987 | 0.923
CN1CCN(CCCN2c3ccccc3Sc3ccc(C(F)(F)F)cc32)CC1 [Trifluoperazine] | 0.775 | 0.708 | 0.641 | 0.764
CNCC(O)C(O)C(O)C(O)CO (stereo not given) [Meglumine] | 0.764 | 0.676 | 0.743 | 0.465
CC(C)(C)C(O)/C=C/c1ccc2c(c1)OCO2 (stereo not given) [Stiripentol] | 1.01 | 0.955 | 1.03 | 0.608
CCC(NC(C)C)C(O)c1ccc(O)c(O)c1.CS(=O)(=O)O (stereo not given) [Isoetharine Mesylate] | 1.59 | 1.03 | 0.371 | 0.52
CC1(C)SC2C(NC(=O)COc3ccccc3)C(=O)N2C1C(=O)[O-].[K+] (stereo not given) [Penicillin V potassium salt] | 0.845 | 0.848 | 0.875 | 0.856
CCCCCCCCCCCCCCCCOc1nc2ccc(C)cc2c(=O)o1 [Cetilistat] | 1.13 | 0.645 | 1.12 | 0.572
CNCCC(Oc1ccccc1C)c1ccccc1.Cl (stereo not given) [Atomoxetine HCl] | 0.91 | 0.981 | 1.2 | 1.14
COC(c1ccccc1)(c1ccccc1)C(Oc1nc(C)cc(C)n1)C(=O)O (stereo not given) [Ambrisentan] | 0.755 | 1.01 | 0.832 | 0.895
COc1cc(NS(C)(=O)=O)ccc1Nc1c2ccccc2nc2ccccc12.Cl [Amsacrine hydrochloride] | 5.99 | 8.15 | 2.18 | 9.19
CCCCCCCCCCCCCCCCCC(=O)O [Stearic acid] | 0.773 | 0.652 | 0.645 | 0.505
CC(=O)O.N=C(N)NCCCC(NC(=O)C1CCCN1C(=O)C1CSSCCC(=O)NC(Cc2ccc(O)cc2)C(=O)NC(Cc2ccccc2)C(=O)NC(CCC(N)=O)C(=O)NC(CC(N)=O)C(=O)N1)C(=O)NCC(N)=O (stereo not given) [Desmopressin Acetate] | 0.905 | 0.693 | 0.782 | 0.565
CCOC(=O)C1=C(COCCN)NC(C)=C(C(=O)OC)C1c1ccccc1Cl (stereo not given) [Amlodipine] | 0.914 | 0.842 | 1.07 | 1.16
CC(=O)NC1C(NC(=N)N)C=C(C(=O)O)OC1C(O)C(O)CO (stereo not given) [Zanamivir] | 0.811 | 0.807 | 0.797 | 0.862
Nc1nc([O-])c2ncn(COC(CO)CO)c2n1.[Na+] [Ganciclovir sodium] | 1.12 | 1.2 | 1.07 | 1.02
CCCCNc1cc(C(=O)O)cc(S(N)(=O)=O)c1Oc1ccccc1 [Bumetanide] | 0.738 | 1.09 | 0.979 | 0.94
O=C(O)c1ccc(O)cc1 [4-Hydroxybenzoic acid] | 0.695 | 1.03 | 0.723 | 0.84
Cc1c(OCC(F)(F)F)ccnc1CS(=O)c1nc2ccccc2[nH]1 (stereo not given) [Lansoprazole] | 0.517 | 0.876 | 0.292 | 0.642
CC(=O)OCC1=C(C(=O)O)N2C(=O)C(NC(=O)CSc3ccncc3)C2SC1.CC(=O)OCC1=C(C(=O)O)N2C(=O)C(NC(=O)CSc3ccncc3)C2SC1.c1ccc(CNCCNCc2ccccc2)cc1 (stereo not given) [Cephapirin Benzathine] | 0.755 | 0.947 | 0.711 | 0.764
CC(Cc1ccc(O)c(O)c1)C(C)Cc1ccc(O)c(O)c1 (stereo not given) [Nordihydroguaiaretic acid (NDGA)] | 0.775 | 0.999 | 0.952 | 0.708
CC(COc1ccccc1Cc1ccccc1)N1CCCCC1.O=P(O)(O)O (stereo not given) [Benproperine phosphate] | 0.865 | 0.824 | 0.734 | 0.977
Oc1c(Cl)cc(Cl)c(Cl)c1Cc1c(O)c(Cl)cc(Cl)c1Cl [Hexachlorophene] | 0.508 | 1.62 | 0.0713 | 0.444
Cc1nccn1CC1CCc2c(c3ccccc3n2C)C1=O.Cl.O.O (stereo not given) [Ondansetron Hydrochloride Dihydrate] | 0.624 | 1.19 | 0.591 | 0.618
CCN(CC)C(=O)C1(c2ccccc2)CC1CN.Cl (stereo not given) [Milnacipran HCl] | 0.761 | 0.824 | 1.01 | 0.846
O.c1cnc2c(c1)ccc1cccnc12 [1, 10-Phenanthroline monohydrate] | 2.76 | 5.32 | 0.308 | 1.12
CC(C)OC(=O)CCC/C=C\CC1C(O)CC(O)C1/C=C/C(F)(F)COc1ccccc1 (stereo not given) [Tafluprost] | 0.993 | 0.711 | 0.86 | 0.468
Cc1noc(NS(=O)(=O)c2ccc(N)cc2)c1C [Sulfisoxazole] | 0.72 | 0.946 | 0.772 | 0.674
Nc1nc(=O)c2ncn(CCC(CO)CO)c2[nH]1 [Penciclovir] | 0.761 | 0.862 | 0.781 | 0.77

SMILES | NF-kB reporter ([1]; irradiation: 8 Gy/4 fr) | NF-kB reporter ([1]; irradiation: none) | ISRE reporter ([2]; irradiation: 8 Gy/4 fr) | ISRE reporter ([2]; irradiation: none)
N=C(N)NCCCCC1NC(=O)CCSSCC(C(N)=O)NC(=O)C2CCCN2C(=O)C(Cc2c[nH]c3ccccc23)NC(=O)C(CC(=O)O)NC(=O)CNC1=O (stereo not given) [Eptifibatide Acetate] | 1.04 | 1.85 | 0.805 | 1.23
CCC1(c2ccccc2)C(=O)NCNC1=O [Primidone] | 0.609 | 0.833 | 0.64 | 0.776
CC(=O)C1(O)CCC2C3CC(C)C4=CC(=O)CCC4(C)C3CCC21C (stereo not given) [Medroxyprogesterone] | 0.435 | 1.07 | 0.189 | 0.56
O=C(O)c1cccnc1 [Nicotinic Acid] | 0.946 | 0.847 | 0.939 | 0.877
C=C1CCN(C(C)C(O)(Cn2cncn2)c2ccc(F)cc2F)CC1 (stereo not given) [Efinaconazole] | 0.729 | 0.849 | 0.541 | 0.751
CCNC(=O)C1CCCN1C(=O)C(CCCNC(=N)N)NC(=O)C(CC(C)C)NC(=O)C(C)NC(=O)C(Cc1ccc(O)cc1)NC(=O)C(CO)NC(=O)C(Cc1c[nH]c2ccccc12)NC(=O)C(Cc1c[nH]cn1)NC(=O)C1CCC(=O)N1 (stereo not given) [Alarelin Acetate] | 1.47 | 0.81 | 1.65 | 0.824
CCOC(=O)C1=C(COCCN)NC(C)=C(C(=O)OC)C1c1ccccc1Cl.O=S(=O)(O)c1ccccc1 (stereo not given) [Amlodipine Besylate] | 0.911 | 0.879 | 1.07 | 2.25
CC1=CCC(O)(C(C)C)CC1 (stereo not given) [Terpinen-4-ol] | 0.472 | 0.45 | 0.0622 | 0.105
O=C(O)CCCNC(=O)c1cccnc1 [Pikamilone] | 0.754 | 0.785 | 0.919 | 0.753
CC1(C)CCC2(C(=O)O)CCC3(C)C(=CCC4C5(C)CCC(O)C(C)(CO)C5CCC43C)C2C1 (stereo not given) [Hederagenin] | 0.511 | 0.646 | 0.268 | 0.508
CNS(=O)(=O)CCc1ccc2[nH]cc(C3CCN(C)CC3)c2c1.Cl [Naratriptan HCl] | 0.742 | 0.98 | 0.765 | 0.872
COc1ccc(C2Sc3ccccc3N(CCN(C)C)C(=O)C2OC(C)=O)cc1.Cl (stereo not given) [Diltiazem HCl] | 0.945 | 0.983 | 1.27 | 1.27
N[C@@H](CCC(=O)O)C(=O)O [(S)-Glutamic acid] | 0.554 | 0.808 | 0.181 | 0.285
CCCCCCCCOC(=O)c1cc(O)c(O)c(O)c1 [Octyl gallate] | 0.524 | 0.956 | 0.0604 | 0.186
N=C(N)Nc1nc(CSCCC(=N)NS(N)(=O)=O)cs1 [Famotidine] | 0.842 | 1.02 | 0.754 | 0.76
CCCCCCc1ccc(O)cc1O [Hexylresorcinol] | 0.717 | 0.969 | 0.605 | 0.652
CCC1C(=O)OCC1Cc1cncn1C.Cl (stereo not given) [Pilocarpine HCl] | 0.969 | 0.75 | 0.901 | 0.634
CCCC(=O)[O-].[Na+] [Sodium butyrate] | 0.83 | 0.992 | 0.804 | 1.1
COc1cc(N)c(Cl)cc1C(=O)NC1CC[NH+](Cc2ccccc2)CC1.O=C(O)CC(O)C(=O)[O-] [Clebopride (malate)] | 0.813 | 1.18 | 0.71 | 0.93
CC(=O)OC/C=C(C)/C=C/C=C(C)/C=C/C1=C(C)CCCC1(C)C [Vitamin A Acetate] | 0.84 | 0.809 | 0.747 | 0.62
C=CC1CC1(NC(=O)C1CC2CN1C(=O)C(C(C)(C)C)NC(=O)OC1CC1CCCCCc1nc3ccc(OC)cc3nc1O2)C(=O)NS(=O)(=O)C1CC1 (stereo not given) [Grazoprevir] | 0.937 | 1.26 | 1.21 | 3.79
Nc1nc2c(ncn2C2CC(O)C(CO)O2)c(=O)[nH]1 (stereo not given) [2'-Deoxyguanosine monohydrate] | 0.903 | 0.642 | 0.948 | 0.574
CO/N=C(\C(=O)NC1C(=O)N2C(C(=O)OCOC(=O)C(C)(C)C)=C(/C=C\c3scnc3C)CSC12)c1csc(N)n1 (stereo not given) [Cefditoren Pivoxil] | 0.639 | 0.984 | 0.639 | 0.791
N=C(N)NCCCC(N)C(=O)O (racemic) [DL-Arginine] | 2.41 | 0.674 | 1.41 | 0.641
CC(C)(C)C(=O)C(Oc1ccc(Cl)cc1)n1ccnc1 (stereo not given) [Climbazole] | 0.873 | 1.03 | 0.814 | 0.828
CC1OC(OCC2OC(Oc3c(-c4ccc(O)c(O)c4)oc4cc(O)cc(O)c4c3=O)C(O)C(O)C2O)C(O)C(O)C1O (stereo not given) [Rutin] | 0.799 | 1.08 | 0.774 | 0.85
Cc1cnc(C(=O)NCCc2ccc(S(=O)(=O)NC(=O)NC3CCCCC3)cc2)cn1 [Glipizide] | 0.654 | 1.08 | 0.568 | 0.857
